US11618753B2 (priority 2018, dated 2023)

Test system: MLKL phosphorylation, HT29-L23 human colorectal adenocarcinoma cells
Test: cells
Conditions: read-out: pMLKL HCS Cell Assay (IC50, uM)

Point of comparison: `CC(CC(=O)N1C[C@H](F)[C@H](NC(=O)c2cc(-c3cc(C(F)(F)F)c4c(N)ncnn34)ccc2OC(F)(F)F)C1)C(F)(F)F` (stereo partly drawn) [Example 1050, 5-[4-amino-5-(trifluoromethyl)pyrrolo[2,1-f][1,2,4]triazin-7-yl]-N-[(3R,4S)-4-fluoro-1-(4,4,4-trifluoro-3-methylbutanoyl)pyrrolidin-3-yl]-2-(trifluoromethoxy)benzamide], IC50 0.07 µM. Against it:
- Nc1ncnn2c(-c3cc(F)c(Cl)c(C(=O)N[C@@H]4CN(C(=O)C5CCC(F)(F)CC5)C[C@@H]4F)c3)cc(C(F)(F)F)c12 [Example 643, 5-[4-amino-5-(trifluoromethyl)pyrrolo[2,1-f][1,2,4]triazin-7-yl]-2-chloro-N-[(3R,4S)-1-(4,4-difluorocyclohexanecarbonyl)-4-fluoropyrrolidin-3-yl]-3-fluorobenzamide] — 2.2-fold lower, 0.032 µM
- Nc1ncnn2c(-c3cccc(C(=O)Nc4cnn(Cc5ccccc5)c4)c3)cc(C(F)(F)F)c12 [Example 76, 3-[4-amino-5-(trifluoromethyl)pyrrolo[2,1-f][1,2,4]triazin-7-yl]-N-(1-benzyl-1H-pyrazol-4-yl)benzamide] — 17-fold lower, 0.0041 µM
- COc1ncc(-c2cc(C#N)c3c(N)ncnn23)cc1C(=O)N[C@@H]1CN(C(=O)[C@@](C)(O)C(F)(F)F)C[C@@H]1F [Example 1569, 5-{4-amino-5-cyanopyrrolo[2,1-f][1,2,4]triazin-7-yl}-N-[(3R,4S)-4-fluoro-1-[(2R)-3,3,3-trifluoro-2-hydroxy-2-methylpropanoyl]pyrrolidin-3-yl]-2-methoxypyridine-3-carboxamide] — 5-fold lower, 0.014 µM
- Nc1ncnn2c(-c3cccc(C(=O)N[C@@H]4CN(C(=O)C5CCC(F)(F)C5)C[C@@H]4F)c3F)cc(C(F)(F)F)c12 (stereo partly drawn) [Example 772, 3-[4-amino-5-(trifluoromethyl)pyrrolo[2,1-f][1,2,4]triazin-7-yl]-N-[(3R,4S)-1-(3,3-difluorocyclopentanecarbonyl)-4-fluoropyrrolidin-3-yl]-2-fluorobenzamide] — 1.6-fold higher, 0.113 µM
- CC(C)(F)C(=O)N1C[C@H](F)[C@H](NC(=O)c2cc(-c3cc(C(F)(F)F)c4c(N)ncnn34)ccc2OC(F)F)C1 [Example 1092, 5-[4-amino-5-(trifluoromethyl)pyrrolo[2,1-f][1,2,4]triazin-7-yl]-2-(difluoromethoxy)-N-[(3R,4S)-4-fluoro-1-(2-fluoro-2-methylpropanoyl)pyrrolidin-3-yl]benzamide] — 2-fold lower, 0.035 µM
- COc1ncc(-c2cc(C(F)(F)F)c3c(N)ncnn23)cc1C(=O)N[C@@H]1CN(S(=O)(=O)C2CCCC2)C[C@@H]1F [Example 1463, 5-[4-amino-5-(trifluoromethyl)pyrrolo[2,1-f][1,2,4]triazin-7-yl]-N-[(3R,4S)-1-(cyclopentanesulfonyl)-4-fluoropyrrolidin-3-yl]-2-methoxypyridine-3-carboxamide] — 35-fold lower, 0.002 µM
- COc1ncc(-c2c(F)cc3c(N)ncnn23)cc1C(=O)N[C@@H]1CN(C(=O)C2CCC(F)(F)CC2)C[C@@H]1F [Example 510, 5-{4-amino-6-fluoropyrrolo[2,1-f][1,2,4]triazin-7-yl}-N-[(3R,4S)-1-(4,4-difluorocyclohexanecarbonyl)-4-fluoropyrrolidin-3-yl]-2-methoxypyridine-3-carboxamide] — within 1.5-fold, 0.099 µM
- CC(C)(F)C(=O)N1C[C@H](F)[C@H](NC(=O)c2cc(-c3cc(C(F)(F)F)c4c(N)ncnn34)cc(F)c2Cl)C1 [Example 630, 5-[4-amino-5-(trifluoromethyl)pyrrolo[2,1-f][1,2,4]triazin-7-yl]-2-chloro-3-fluoro-N-[(3R,4S)-4-fluoro-1-(2-fluoro-2-methylpropanoyl)pyrrolidin-3-yl]benzamide] — 4.4-fold lower, 0.016 µM
- CCOc1ccc(-c2cc(C(F)(F)F)c3c(N)ncnn23)cc1C(=O)N[C@@H]1CN(C(=O)C2CCC(F)(F)C2)C[C@@H]1F (stereo partly drawn) [Example 1102, 5-[4-amino-5-(trifluoromethyl)pyrrolo[2,1-f][1,2,4]triazin-7-yl]-N-[(3R,4S)-1-(3,3-difluorocyclopentanecarbonyl)-4-fluoropyrrolidin-3-yl]-2-ethoxybenzamide] — 3.7-fold lower, 0.019 µM
- COc1ncc(-c2cc(C(F)(F)F)c3c(N)ncnn23)cc1C(=O)NC1CN(C2c3ccccc3CC2C)C[C@@H]1F (stereo partly drawn) [Example 1367, 5-[4-amino-5-(trifluoromethyl)-pyrrolo[2,1-f][1,2,4]triazin-7-yl]-N-[(3R,4S)-4-fluoro-1-(2-methyl-2,3-dihydro-1H-inden-1-yl)pyrrolidin-3-yl]-2-methoxypyridine-3-carbox-amide] — within 1.5-fold, 0.064 µM
- Cc1c(F)cc(-c2cc(C(F)(F)F)c3c(N)ncnn23)cc1C(=O)N[C@@H]1CN(C(=O)C(C)(C)C)C[C@@H]1F [Example 666, 5-[4-amino-5-(trifluoromethyl)pyrrolo[2,1-f][1,2,4]triazin-7-yl]-N-[(3R,4S)-1-(2,2-dimethylpropanoyl)-4-fluoropyrrolidin-3-yl]-3-fluoro-2-methylbenzamide] — 24-fold lower, 0.0029 µM
- CC(C)(F)C(=O)N1C[C@H](F)[C@H](NC(=O)c2cc(-c3cc(C(F)(F)F)c4c(N)ncnn34)ccc2Cl)C1 [Example 933, 5-[4-amino-5-(trifluoromethyl)pyrrolo[2,1-f][1,2,4]triazin-7-yl]-2-chloro-N-[(3R,4S)-4-fluoro-1-(2-fluoro-2-methylpropanoyl)pyrrolidin-3-yl]benzamide] — 6.4-fold lower, 0.011 µM
- CC(C)(C(=O)N1C[C@H](F)[C@H](NC(=O)c2cc(-c3cc(CN4CC(F)(F)C4)c4c(N)ncnn34)c(F)cc2Cl)C1)C(F)(F)F [Example 1308, 5-{4-amino-5-[(3,3-difluoroazetidin-1-yl)methyl]pyrrolo[2,1-f][1,2,4]triazin-7-yl}-2-chloro-4-fluoro-N-[(3R,4S)-4-fluoro-1-(3,3,3-trifluoro-2,2-dimethyl-propanoyl)pyrrolidin-3-yl]benzamide] — 50-fold lower, 0.0014 µM
- [2H]C([2H])([2H])Oc1ncc(-c2cc(CN3CC(F)(F)C3)c3c(N)ncnn23)cc1C(=O)N[C@@H]1CN(C(=O)[C@@](C)(O)C(F)(F)F)C[C@@H]1F [Example 1299, 5-{4-amino-5-[(3,3-difluoroazetidin-1-yl)methyl]pyrrolo[2,1-f][1,2,4]triazin-7-yl}-N-[(3R,4S)-4-fluoro-1-[(2R)-3,3,3-trifluoro-2-hydroxy-2-methylpropanoyl]pyrrolidin-3-yl]-2-(methoxy-d3)nicotinamide] — 120-fold lower, 0.00058 µM
- Cc1c(F)cc(-c2cc(C(F)(F)F)c3c(N)ncnn23)cc1C(=O)N[C@@H]1CN(C(=O)c2cncc(F)c2)C[C@@H]1F [Example 1324, 5-[4-amino-5-(trifluoromethyl)pyrrolo-[2,1-f][1,2,4]triazin-7-yl)-3-fluoro-N-[(3R,4S)-4-fluoro-1-(5-fluoropyridine-3-carbonyl)pyrrolidin-3-yl]-2-methyl-benzamide] — 8.6-fold lower, 0.0081 µM
- Nc1ncnn2c(-c3cnc(F)c(C(=O)Nc4cnn(CC5CC5)c4)c3)cc(C(F)(F)F)c12 [Example 268, 5-[4-amino-5-(trifluoromethyl)pyrrolo[2,1-f][1,2,4]triazin-7-yl]-N-[1-(cyclopropylmethyl)-1H-pyrazol-4-yl]-2-fluoropyridine-3-carboxamide] — 1.7-fold higher, 0.122 µM
- Nc1ncnn2c(-c3ccc(F)c(C(=O)NCc4ccccc4Oc4ccccc4)c3)cc(C(F)(F)F)c12 [Example 244, 5-[4-amino-5-(trifluoromethyl)pyrrolo[2,1-f][1,2,4]triazin-7-yl]-2-fluoro-N-[(2-phenoxyphenyl)methyl]benzamide] — 3.7-fold higher, 0.258 µM
- Cc1ncc(-c2cc(C(F)(F)F)c3c(N)ncnn23)cc1C(=O)N[C@@H]1CN(C(=O)C2CCC(F)(F)CC2)C[C@@H]1C [Example 293, 5-[4-amino-5-(trifluoromethyl)pyrrolo[2,1-f][1,2,4]triazin-7-yl]-N-[(3S,4S)-1-(4,4-difluorocyclohexanecarbonyl)-4-methylpyrrolidin-3-yl]-2-methylpyridine-3-carboxamide] — within 1.5-fold, 0.053 µM
- COc1ncc(-c2c(C#N)cc3c(N)ncnn23)cc1C(=O)N[C@@H]1CN(C(=O)C2CC2(F)F)C[C@@H]1F (stereo partly drawn) [Example 551, 5-(4-amino-6-cyanopyrrolo[2,1-f][1,2,4]triazin-7-yl)-N-((3R,4S)-1-(2,2-difluorocyclopropane-1-carbonyl)-4-fluoropyrrolidin-3-yl)-2-methoxynicotinamide] — 7.6-fold higher, 0.532 µM
- Nc1ncnn2c(-c3cncc(C(=O)NCC[C@H](O)c4ccc(Cl)cc4)c3)cc(C(F)(F)F)c12 [Example 277, 5-[4-amino-5-(trifluoromethyl)pyrrolo[2,1-f][1,2,4]triazin-7-yl]-N-[(3S)-3-(4-chlorophenyl)-3-hydroxypropyl]pyridine-3-carboxamide] — 2.8-fold lower, 0.025 µM
- Cc1ccc(-c2cc(C(F)(F)F)c3c(N)ncnn23)c(F)c1C(=O)N[C@@H]1CN(C(=O)CC(O)(C(F)(F)F)C(F)(F)F)C[C@@H]1F [Example 759, 3-[4-amino-5-(trifluoromethyl)pyrrolo[2,1-f][1,2,4]triazin-7-yl]-2-fluoro-N-[(3R,4S)-4-fluoro-1-[4,4,4-trifluoro-3-hydroxy-3-(trifluoromethyl)butanoyl]pyrrolidin-3-yl]-6-methylbenzamide] — 26-fold lower, 0.0027 µM
- Cc1ccc(-c2cc(C(F)(F)F)c3c(N)ncnn23)cc1C(=O)N[C@@H]1CN(C(=O)c2ccc(C(F)(F)F)nc2)C[C@@H]1F [Example 1031, 5-[4-amino-5-(trifluoromethyl)pyrrolo[2,1-f][1,2,4]triazin-7-yl]-N-[(3R,4S)-4-fluoro-1-[6-(trifluoromethyl)pyridine-3-carbonyl]pyrrolidin-3-yl]-2-methylbenzamide] — 2.3-fold higher, 0.162 µM
- COc1ncc(-c2cc(CN3CCC(F)(F)CC3)c3c(N)ncnn23)cc1C(=O)N[C@@H]1CN(C(=O)O[C@H](C)C2CC2)C[C@@H]1F [Example 1515, (1R)-1-cyclopropylethyl (3R,4S)-3-(5-{4-amino-5-[(4,4-difluoropiperidin-1-yl)methyl]pyrrolo[2,1-f][1,2,4]triazin-7-yl}-2-methoxypyridine-3-amido)-4-fluoropyrrolidine-1-carboxylate] — 47-fold lower, 0.0015 µM
- CC(C)(C)n1cc(NC(=O)c2cc(-c3cc(C(F)(F)F)c4c(N)ncnn34)cnc2N)cn1 [Example 35, 2-amino-5-[4-amino-5-(trifluoromethyl)pyrrolo[2,1-f][1,2,4]triazin-7-yl]-N-(1-tert-butyl-1H-pyrazol-4-yl)pyridine-3-carboxamide] — within 1.5-fold, 0.104 µM
